PMC12434519 (ACS Medicinal Chemistry Letters, 2025)

Biological target: SARS-CoV-2 NSP14 (Severe acute respiratory syndrome coronavirus 2, UniProt P0DTD1)
Assay: biochemical
[1] = LUM % inhibition, read-out: SARS-CoV-2 NSP14 inhibition: IC50
[2] = LUM % inhibition, read-out: SARS-CoV-2 NSP14 inhibition: Maximum response
[3] = fit of concentration-response curve
[4] = Hill slope of the concentration-response fit
[5] = maximum response, LUM % inhibition, read-out: SARS-CoV-2 NSP14 inhibition: Maximum response (%)
[6] = read-out: SARS-CoV-2 NSP14 inhibition: IC50
[7] = TDI-015051 series, retrospective VS set, biochemical MTase assay, read-out: Merged IC50

Row | Compound | IC50 [1] [µM] | Emax [2] [%] | SARS-CoV-2 NSP14 inhibition: Hill slope [3] | SARS-CoV-2 NSP14 inhibition: Hill slope [4] | Emax [5] [%] | IC50 [6] [µM] | other results
1 | C=C1Nc2ncnn2C(C)=C1CC(=O)Nc1cccc(C(=O)Nc2cccc(C(F)(F)F)c2)c1 [RU-0833915] | > 125 | 13.7 | 16.2 | – | – | – | –
2 | Cc1c(O)cccc1C(=O)NC[C@]1(O)CCN(C(=O)Cc2ccc3[nH]ncc3c2)C1 [RU-0833675] | – | – | – | 13.5 | 3.8 | > 62.5 | –
3 | COc1ccccc1CNC(=O)c1cc2n(n1)CCCN(Cc1cccc(C)c1)C2=O [RU-0833879] | 27.3 | 59.4 | 1.2 | – | – | – | –
4 | CC(=O)N1CCN(S(=O)(=O)c2cccc(C(=O)NC3CCCc4ccccc43)c2)CC1 (stereo not drawn) [RU-0833929] | – | 13.9 | 1.54 | – | – | – | IC50 (SARS-CoV-2 NSP14 inhibition: IC50, LUM % inhibition): > 125 µM
5 | Cc1c(S(=O)(=O)n2ncc3ccccc32)cc(C(=O)NCc2c(F)ccc3occc23)n1C [TDI-015687, Cc1c(S(=O)(=O)n2ncc3ccccc32)cc(C(=O)NCc2c(F)ccc3occc23)n1C] | – | – | – | – | – | – | IC50 [7]: 0.958 µM
6 | O=C(NCc1nnc2ccccn12)c1cccc(S(=O)(=O)NCc2ccccc2)c1 [RU-0833665] | – | – | – | 2.59 | 0.512 | > 62.5 | –
7 | Cc1ccc(-c2noc(C(=O)N3CCCCC3)n2)cc1S(=O)(=O)Nc1ccc(F)cc1Cl [RU-0833886] | > 125 | 14 | 105 | – | – | – | –
8 | CC(=O)N1CCN(S(=O)(=O)c2ccc(C(=O)NC3CCSc4c(F)cccc43)cc2)CC1 (stereo not drawn) [RU-0833916] | > 125 | 8.86 | 9.15 | – | – | – | –
9 | CC(Cn1ncc2ccccc2c1=O)NC(=O)Cn1nnc(-c2ccccc2)n1 (stereo not drawn) [RU-0833913] | > 125 | 9.13 | 0.119 | – | – | – | –
10 | COc1ccccc1CNC(=O)c1cc(S(=O)(=O)N2CCC(C)CC2)c(C)s1 [TDI-013669, COc1ccccc1CNC(=O)c1cc(S(=O)(=O)N2CCC(C)CC2)c(C)s1] | – | – | – | – | – | – | IC50 [7]: 0.575 µM
11 | CN(c1ccccc1)S(=O)(=O)c1cccc(NC(=O)CNC(=O)c2ccccc2Cl)c1 [RU-0833903] | > 125 | 10.7 | 70.3 | – | – | – | –
12 | Cn1ccc2cc(S(=O)(=O)N3CCCC(C(=O)NCc4ccccc4Cl)C3)ccc21 (stereo not drawn) [RU-0833888] | > 125 | 10.8 | 7130 | – | – | – | –
13 | Cc1cc(C(=O)NC2CC(O)(CNC(=O)c3ncn4ccccc34)C2)cc2c1CCC2 (stereo not drawn) [RU-0834102] | > 125 | 12.2 | 14.9 | – | – | – | –
14 | CC(CNC(=O)c1nc(CCS(=O)(=O)c2ccc(Cl)cc2)no1)c1ccccc1 (stereo not drawn) [RU-0386434] | – | – | – | 12.1 | 10.8 | > 125 | –
15 | Cc1c(F)ccc(C(=O)NCCc2ccc(CNC(=O)c3cccn4nccc34)cc2)c1F [RU-0834088] | > 125 | 39.6 | 0.371 | – | – | – | –
16 | CC(NC(=O)c1cccc(S(=O)(=O)N(C)C2CCCCC2)c1)c1ccc(-n2cncn2)cc1 (stereo not drawn) [RU-0833873] | > 125 | 14.9 | 34.9 | – | – | – | –
17 | Cc1cccc(C(=O)Nc2cc(NC(=O)Cn3nc(C)cc3C)ccc2C)c1 [RU-0833869] | – | – | – | 10.7 | 19.6 | > 125 | –
18 | CC[C@@H](Cn1ncc2ccccc2c1=O)NC(=O)CCn1ncc2ccccc21 [RU-0833889] | > 125 | 7.45 | 180 | – | – | – | –
19 | O=C(Cc1ccc(O)cc1Cl)N[C@]12C[C@H]1CN(C(=O)c1cc3ccccc3[nH]1)C2 [RU-0833681] | – | – | – | 0.739 | 1.03 | > 62.5 | –
20 | Cc1cc(C(=O)N[C@H]2C[C@@H](O)[C@@H]2CC(=O)NCc2cccc(C)c2F)ccc1O [RU-0834166] | > 125 | 21.7 | 1.26 | – | – | – | –
21 | COc1ccc(CC(=O)Nc2cccc(S(=O)(=O)N(C)c3ccccc3)c2)cc1 [RU-0833640] | – | – | – | 41.8 | -2.97 | > 62.5 | –

Row | Compound | IC50 [1] [µM] | Emax [2] [%] | SARS-CoV-2 NSP14 inhibition: Hill slope [3] | SARS-CoV-2 NSP14 inhibition: Hill slope [4] | Emax [5] [%] | IC50 [6] [µM] | other results
22 | Cc1cc(C(=O)NC[C@H]2C[C@H](CNC(=O)c3ncn4ccccc34)C2)ccc1O [RU-0834189] | > 125 | 11.8 | 1.2 | – | – | – | –
23 | COc1ccccc1CNC(=O)c1cc(S(=O)(=O)N2CCc3ccccc3C2)c2n1CCC2 [TDI-013711, COc1ccccc1CNC(=O)c1cc(S(=O)(=O)N2CCc3ccccc3C2)c2n1CCC2] | – | – | – | – | – | – | IC50 [7]: 0.0683 µM
24 | Cc1c(CO)cccc1C(=O)NCC1CCC2CN(C(=O)Cc3cn4ccccc4n3)CC12 (stereo not drawn) [RU-0834099] | > 125 | 9.83 | 53 | – | – | – | –
25 | Cc1cc(C(=O)NCC2CCN(C(=O)c3cnn4ccn(C)c34)CC2O)cc(C)c1O (stereo not drawn) [RU-0834105] | > 125 | 16.2 | 10.9 | – | – | – | –
26 | O=C(NCc1cn2ccccc2n1)c1cccc(S(=O)(=O)N2CCc3ccccc3C2)c1 [RU-0833898] | > 125 | 18.2 | 33.6 | – | – | – | –
27 | O=C(Cc1n[nH]c2ccccc12)Nc1cc(F)cc(NC(=O)Cc2n[nH]c3ccccc23)c1 [RU-0833638] | – | – | – | 0.606 | 18.1 | > 62.5 | –
28 | COc1ccccc1NS(=O)(=O)c1cc(C(=O)NCc2nc3ccccc3[nH]2)ccc1Cl [RU-0833662] | – | – | – | 1.03 | 11.5 | > 62.5 | –
29 | CCOc1ccc(-n2ccn3c(CC(C)CC(=O)NCc4ccc(OC)cc4)nnc3c2=O)cc1 (stereo not drawn) [RU-0833876] | > 125 | 22.7 | 1.92 | – | – | – | –
30 | COc1ccc(S(=O)(=O)N2CCc3ccccc32)cc1C(=O)N[C@H]1CCSc2ccccc21 [RU-0833660] | – | – | – | 84.9 | 1.05 | > 62.5 | –
31 | Cc1c(S(=O)(=O)N2Cc3c[nH]nc3[C@H](C)C2)cc(C(=O)NCc2c(F)ccc3occc23)n1C [TDI-015657, Cc1c(S(=O)(=O)N2Cc3c[nH]nc3[C@H](C)C2)cc(C(=O)NCc2c(F)ccc3occc23)n1C] | – | – | – | – | – | – | IC50 (Merged IC50 (µM), TDI-015051 series, retrospective VS set, biochemical MTase assay): 0.000217 µM
32 | Cc1cc(C(=O)N[C@@H]2CC[C@H](CNC(=O)c3ncc4ccccn34)C2)ccc1O [RU-0834154] | 16.3 | 29.3 | 0.948 | – | – | – | –
33 | COc1ccc(C(=O)NCc2nnc3ccccn23)cc1S(=O)(=O)NCc1ccc(Cl)cc1 [RU-0833666] | – | – | – | 9.74 | 1.7 | > 62.5 | –
34 | COc1ccc(NS(=O)(=O)c2ccc(C)c(NS(=O)(=O)c3ccc(F)c(C)c3)c2)cc1 [RU-0833893] | > 125 | 8.58 | 37 | – | – | – | –
35 | Cc1ccc(S(=O)(=O)Nc2ccccc2F)cc1C(=O)NCC(=O)Nc1cccc(C)c1C [RU-0833650] | – | – | – | 0.751 | 2.65 | > 62.5 | –
36 | Cc1cc(C(=O)N2CCC(C(C)CNC(=O)c3ncn4ccccc34)CC2)ccc1O (stereo not drawn) [RU-0834092] | > 125 | 12.2 | 51.9 | – | – | – | –
37 | C[C@H](O)c1ccc(C(=O)N[C@@H]2c3ccccc3C[C@H]2NC(=O)c2c[nH]nc2-c2ccccc2F)cc1 [RU-0833673] | – | – | – | 17.9 | 0.53 | > 62.5 | –
38 | O=C(NCc1ccccc1CNC(=O)c1ncnc2[nH]ccc12)c1cccc(Br)c1F [RU-0833942] | 25.1 | 69.3 | 1.33 | – | – | – | –
39 | COc1ccc(NS(=O)(=O)c2cc(NC(=O)Cc3ccc(OC)cc3OC)ccc2C)cc1 [RU-0833664] | – | – | – | 4.68 | 4.52 | > 62.5 | –
40 | O=C(Nc1cccc(F)c1)c1cccc(NC(=O)c2ccnc3[nH]ccc23)c1 [RU-0833674] | – | – | – | 2.17 | 2.07 | > 62.5 | –
41 | Nc1ncnc2c1ncn2C1OC(CC(N)CCC(N)C(=O)O)C(O)C1O (stereo not drawn) [RU-0425548] | – | 101 | 0.841 | – | – | – | –
42 | COc1cccn2ncc(C(=O)NC[C@@H]3C[C@H]3CNC(=O)c3cc(C)c(F)c(C)c3)c12 [RU-0833683] | – | – | – | 16.6 | 2.96 | > 62.5 | –

Read-outs that look alike come from different tables or passages of the source.
